According to article PMC4336329 (PLoS ONE, 2015):
About 14,000 (4.5%) of roughly 310,000 compounds showed an effect of 50% or more. Effects have a minus sign here. The list shows a part of the results.

Molecular target: human ether-à-go-go-related gene (hERG) potassium channel (human, UniProt Q12809)
Assay: primary screen, population patch clamp on CHO cells stably expressing hERG
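Also: peak tail current of the secondary pulse compared with the same well before compound.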

Chain of human ether-à-go-go-related gene (hERG) potassium channel (Q12809 whole entry, looked up): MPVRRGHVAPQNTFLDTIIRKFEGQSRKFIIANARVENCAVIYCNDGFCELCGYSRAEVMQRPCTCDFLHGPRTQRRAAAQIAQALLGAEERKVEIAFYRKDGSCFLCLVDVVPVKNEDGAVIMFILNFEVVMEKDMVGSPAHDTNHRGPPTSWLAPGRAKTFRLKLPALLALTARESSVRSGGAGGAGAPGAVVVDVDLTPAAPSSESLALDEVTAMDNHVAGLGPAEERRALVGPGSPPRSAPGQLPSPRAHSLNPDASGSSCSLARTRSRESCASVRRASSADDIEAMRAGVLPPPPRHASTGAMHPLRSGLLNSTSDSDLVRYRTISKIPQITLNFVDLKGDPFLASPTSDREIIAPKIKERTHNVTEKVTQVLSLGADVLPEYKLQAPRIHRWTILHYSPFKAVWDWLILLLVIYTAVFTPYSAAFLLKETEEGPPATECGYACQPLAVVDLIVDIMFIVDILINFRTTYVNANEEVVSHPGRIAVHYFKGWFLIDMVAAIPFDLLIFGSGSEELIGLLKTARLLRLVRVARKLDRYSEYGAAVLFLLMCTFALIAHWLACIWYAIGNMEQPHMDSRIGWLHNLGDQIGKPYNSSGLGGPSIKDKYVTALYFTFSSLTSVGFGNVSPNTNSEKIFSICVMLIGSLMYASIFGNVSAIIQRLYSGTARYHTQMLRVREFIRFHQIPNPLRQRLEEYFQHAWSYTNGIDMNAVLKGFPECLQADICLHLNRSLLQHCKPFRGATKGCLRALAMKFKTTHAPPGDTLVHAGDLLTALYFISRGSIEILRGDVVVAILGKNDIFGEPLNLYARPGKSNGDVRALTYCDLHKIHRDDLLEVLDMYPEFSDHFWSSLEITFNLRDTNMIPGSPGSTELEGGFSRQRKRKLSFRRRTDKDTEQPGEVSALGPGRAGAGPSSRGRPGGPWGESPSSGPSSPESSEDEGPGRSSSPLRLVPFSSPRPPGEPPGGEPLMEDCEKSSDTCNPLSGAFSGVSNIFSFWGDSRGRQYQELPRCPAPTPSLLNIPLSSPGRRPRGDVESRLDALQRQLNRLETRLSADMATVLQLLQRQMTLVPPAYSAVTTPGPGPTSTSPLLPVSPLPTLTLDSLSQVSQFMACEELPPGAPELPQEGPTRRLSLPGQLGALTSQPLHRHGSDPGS

Row | Compound | hERG current change (%, negative = inhibition) at 10uM
1 | Brc1ccc(-c2nnc3sc(CNC4CCCC4)cn23)cc1 | -16.4%
2 | O=C(NCCCc1ccccc1)c1ccc(CS(=O)Cc2ccccc2Cl)o1 (stereo not drawn) | -76.2%
3 | COc1ccc(CCn2c(O)c(C3=c4ccccc4=NC3=O)sc2=S)cc1OC | 26.6%
4 | Cn1c(=O)n(C)c2cc(N3CCOCC3)c(NC(=O)c3ccc(F)cc3)cc21 | -8.15%
5 | O=C(Sc1cccc2cccnc12)c1ccccc1Br | 0.877%
6 | CCCN1C(=O)c2ccccc2NC1c1ccc(O)c(OCC)c1 (stereo not drawn) | 6.64%
7 | COc1ccc2c(c1)CC/C(=C\C=C\c1ccccc1)C2=O | 12.9%
8 | COC(=O)Cc1ccc(NC(=S)N2CCN(CCO)CC2)cc1 | 3.63%
9 | C/C(=N\Nc1ccc(C(F)(F)F)cc1[N+](=O)[O-])C(C)C | 19.6%
10 | Cc1ccccc1C(=O)OC1CCN(C)CC1.Cl | 6.06%
11 | CCC(Sc1ncccc1C(=O)O)C(=O)N1CCCC1 (stereo not drawn) | -1.88%
12 | CCn1c(SCC(=O)Nc2ccc(C)cc2)nnc1-c1ccccn1 | -59.1%
13 | CC(=O)c1cnc2c(-c3ccccc3)c(-c3ccccc3)nn2c1C | 15.3%
14 | Cc1cc(Cl)ccc1NC(=S)NCc1ccc(F)cc1 | 11%
15 | CCOC(=O)c1ccc(NC(=O)c2ccnn2C)cc1 | 4.61%
16 | Cn1nc(C(=O)Nc2nc3ccc(S(C)(=O)=O)cc3s2)ccc1=O | -20.7%
17 | CC(C)N1C(=O)CCC1C(=O)NC1CCCC1 (stereo not drawn) | -3.05%
18 | CC(C)c1ccc(NC(=O)CSc2ncccc2C(=O)Oc2cccc([N+](=O)[O-])c2)cc1 | 8.39%
19 | CCOc1cccc2c1OC(c1cc(OC)c(OC)c(OC)c1)N1N=C(c3ccc(C)o3)CC21 (stereo not drawn) | 5.07%
20 | CCc1ccccc1N(CC(=O)NCCSCc1ccco1)S(C)(=O)=O | -15.7%
21 | O=C(COC(=O)c1cn(-c2ccccc2)nc1-c1cccnc1)NC1CC1 | -0.964%
22 | CC1(C)CC(=O)C2=C(C1)N1C(=C(C#N)C2c2ccccc2Cl)N=C(N)c2ccccc21 (stereo not drawn) | -15.8%
23 | CCc1noc(C)c1C(=O)Nc1cc(C(F)(F)F)ccc1-n1cncn1 | -21.3%

Row | Compound | hERG current change (%, negative = inhibition) at 10uM
24 | CCCn1c(SCC(=O)Nc2cc(Cl)ccc2OC)n[nH]c1=O | -24.7%
25 | S=C(NCCc1cccc(Cl)c1)NC1CCCCC1 | 6.84%
26 | O=C(O)C1(P(=O)(c2ccccc2)c2ccccc2)CCC1 | -3.46%
27 | COc1ccc(C(=O)NCc2ccc(Cl)cc2)cc1S(=O)(=O)N1CCCC1 | -39.2%
28 | COC(=O)C1=C[C@@H](C(=O)OC)[C@@H]2C3=C(C(=O)[C@@]2(C)NC(=O)c2ccccc2)[C@H](c2ccccc2)n2c(=O)n(-c4ccccc4)c(=O)n2[C@@H]3C1 | 20.6%
29 | Cc1cc(Cl)ccc1NC(=S)NCc1ccccc1 | 13.6%
30 | COc1cc2c(cc1OC)CN(Cc1ccc(F)cc1)CC2 | -19%
31 | COc1cc(-c2n[nH]c(=S)n2-c2ccc(Br)cc2)cc(OC)c1OC | 6.64%
32 | Cc1cccc(OCC2=NS(=O)(=O)c3ccccc3N2)c1 | -25.8%
33 | Cc1cccn2c(=O)c(C=O)c(N3CC(C)OC(C)C3)nc12 (stereo not drawn) | 28.3%
34 | Fc1ccccc1N1CCN(CCCc2ccccc2)CC1 | -64.7%
35 | CC1CCCCN1CCNC(=O)Cn1nc(-c2ccccc2)ccc1=O (stereo not drawn) | 3.4%
36 | CCOC(=O)c1cc2c(ccn2C)n1CC(=O)N(C)C | 9.18%
37 | CCOC(=O)CN1CC23C=CC(O2)C(C(=O)NCc2ccc(F)cc2)C3C1=O (stereo not drawn) | -0.2%
38 | CCOc1ccc(-n2c(Cc3ccccc3)nnc2SCc2c(C)noc2C)cc1 | -74.1%
39 | O=C(NC1CCCC1)C(c1ccc(F)cc1)N(Cc1ccc(Cl)cc1)C(=O)CCl (stereo not drawn) | -14.2%
40 | CC(C)c1nnc(NC(=O)Cn2nc(-c3ccc4c(c3)OCCO4)ccc2=O)s1 | 4.27%
41 | O=C(CSc1nc2ccccc2c(=O)n1-c1ccc(F)cc1)Nc1ccc(N2CCOCC2)cc1 | -6.58%
42 | CC(C)(C)N1CC(c2nc3ccccc3n2Cc2ccccc2)CC1=O (stereo not drawn) | -47.2%
43 | CC(C)CC(CC(C)C)=NNC(=O)c1ccc(CSc2nncn2C)cc1 | 13.7%
44 | CC(=O)n1c2ccccc2c2nc(NC(C)C)sc21 | -3.77%
45 | Cc1ccc(C2Nc3ccccc3NC3=C2C(=O)CC(C)(C)C3)c(O)c1 (stereo not drawn) | 3.15%
